# According to the supplement of paper PMC7826260:
# This is one part of the list. Each Rep nickase domain was tested in vitro on the same pool of single strands at 3 µM enzyme and 37 °C for 1 h; the strands have 90 letters, of which the middle is given. The score is log2 (uncut reads / reads without enzyme); more negative means more cut, near 0 not cut, and no call is made. Because reads are shares of a total, they shift together; where an enzyme cuts many sequences, the uncut ones exceed 0.
# Experiments:
# Test in all cases: uncleaved DNA left, log2 of reads against the no-enzyme library (log2 ratio); higher = less cleavage (more negative = more Rep cleavage of the k-mer); sequences stand for … in CTCGTCCG…ACCGGAGA
# [1] = tested on: T1, Rep nickase domain of Muscovy duck circovirus
# T1 sequence (protein, residues 1-111, tag omitted): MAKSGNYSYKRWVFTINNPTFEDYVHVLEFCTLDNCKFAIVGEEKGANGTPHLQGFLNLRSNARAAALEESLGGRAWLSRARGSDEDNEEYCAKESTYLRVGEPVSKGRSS
# Procedure: (§1)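 A pool of 90-nt single-stranded DNAs with seven random bases just before the constant AC of the nick site (name = the seven bases) was cut by 3 µM recombinant His6-SUMO-tagged Rep nickase domain (300 nM DNA, 50 mM HEPES pH 8.0, 50 mM NaCl, 1 mM MnCl2, 1 h, 37 °C, three replicates). Uncut DNA was amplified and sequenced.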
# [2] = tested on: T2, Rep nickase domain of banana bunchy top virus
# T2 sequence (protein, residues 1-94, tag omitted): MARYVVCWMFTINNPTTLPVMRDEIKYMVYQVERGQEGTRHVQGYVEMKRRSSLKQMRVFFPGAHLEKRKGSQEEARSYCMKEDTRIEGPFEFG
# Procedure: as §1
# [3] = tested on: T3, Rep nickase domain of cabbage leaf curl virus
# T3 sequence (protein, residues 1-116, tag omitted): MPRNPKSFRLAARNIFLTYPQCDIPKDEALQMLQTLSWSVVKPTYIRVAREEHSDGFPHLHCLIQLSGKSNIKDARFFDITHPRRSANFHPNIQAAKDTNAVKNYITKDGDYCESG
# Procedure: as §1
# [4] = tested on: T4, Rep nickase domain of chickpea chlorotic dwarf virus
# T4 sequence (protein, residues 1-124, tag omitted): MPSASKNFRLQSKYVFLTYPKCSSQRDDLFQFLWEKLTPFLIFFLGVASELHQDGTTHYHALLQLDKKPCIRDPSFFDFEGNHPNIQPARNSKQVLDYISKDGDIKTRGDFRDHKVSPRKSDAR
# Procedure: as §1
# [5] = tested on: T5, Rep nickase domain of faba bean necrotic yellows virus
# T5 sequence (protein, residues 1-98, tag omitted): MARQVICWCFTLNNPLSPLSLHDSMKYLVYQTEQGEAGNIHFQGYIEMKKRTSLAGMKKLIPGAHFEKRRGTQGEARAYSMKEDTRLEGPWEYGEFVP
# Procedure: as §1
# [6] = tested on: T6, Rep nickase domain of maize striate mosaic virus
# T6 sequence (protein, residues 1-117, tag omitted): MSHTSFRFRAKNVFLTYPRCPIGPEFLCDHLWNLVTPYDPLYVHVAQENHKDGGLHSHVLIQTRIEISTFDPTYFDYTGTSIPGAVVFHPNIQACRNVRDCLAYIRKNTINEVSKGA
# Procedure: as §1
# [7] = tested on: T7, Rep nickase domain of porcine circovirus 2
# T7 sequence (protein, residues 2-116, tag omitted): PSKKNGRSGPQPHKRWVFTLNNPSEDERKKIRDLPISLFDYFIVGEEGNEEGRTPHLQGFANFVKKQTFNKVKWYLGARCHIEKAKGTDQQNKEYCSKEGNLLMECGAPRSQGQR
# Procedure: as §1
# [8] = tested on: T8, Rep nickase domain of tomato golden mosaic virus
# T8 sequence (protein, residues 1-124, tag omitted): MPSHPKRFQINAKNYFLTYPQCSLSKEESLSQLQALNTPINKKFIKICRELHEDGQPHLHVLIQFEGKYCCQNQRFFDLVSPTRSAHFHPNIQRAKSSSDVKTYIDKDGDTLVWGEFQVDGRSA
# Procedure: as §1
# [9] = tested on: T9, Rep nickase domain of tomato yellow leaf curl virus
# T9 sequence (protein, residues 1-136, tag omitted): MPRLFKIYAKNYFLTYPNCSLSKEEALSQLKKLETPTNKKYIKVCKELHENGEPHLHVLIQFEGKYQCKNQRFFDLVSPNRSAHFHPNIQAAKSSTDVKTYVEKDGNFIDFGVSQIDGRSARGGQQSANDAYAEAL
# Procedure: as §1
# [10] = tested on: T10, Rep nickase domain of wheat dwarf virus
# T10 sequence (protein, residues 1-137, tag omitted): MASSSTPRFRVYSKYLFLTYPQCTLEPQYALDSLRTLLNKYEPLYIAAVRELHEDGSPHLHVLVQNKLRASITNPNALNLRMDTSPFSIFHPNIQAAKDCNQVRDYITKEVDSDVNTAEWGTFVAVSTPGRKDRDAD
# Procedure: as §1
Sequence,uncleaved DNA left (log2) [1],uncleaved DNA left (log2) [2],uncleaved DNA left (log2) [3],uncleaved DNA left (log2) [4],uncleaved DNA left (log2) [5],uncleaved DNA left (log2) [6],uncleaved DNA left (log2) [7],uncleaved DNA left (log2) [8],uncleaved DNA left (log2) [9],uncleaved DNA left (log2) [10]
AGGCGCA,0.102,0.0616,0.0795,0.331,0.0792,0.411,0.0816,0.181,0.0335,0.174
GCTTGCA,0.0748,0.0235,-0.554,-0.41,0.00359,-1.19,0.127,-0.0969,0.0438,-0.0298
AAACATA,-0.0193,0.107,-0.257,-2.45,0.0235,-0.402,-0.0207,-0.0641,0.0232,0.011
TTTAACA,-0.0197,0.0946,-0.246,-2.01,0.081,-0.00438,-0.0945,0.112,0.11,0.0292
TGGCTGT,0.088,-0.0283,0.0949,0.811,0.0268,1.4,-0.0602,-0.029,-0.0161,0.0519
CCCCATT,-0.168,-0.181,-0.185,-2.02,-0.268,-0.905,-0.432,-0.083,-0.069,-0.124
ATCGACG,-0.0343,0.0193,-0.285,-0.00245,0.00811,0.027,0.154,0.102,-0.168,-0.00424
TGCTTTA,-0.0873,-0.0415,-0.0421,-0.816,-0.213,-0.295,-0.383,-0.0768,-0.0517,-0.24
GGTAAAG,0.0885,0.092,0.205,0.627,0.0632,-0.0324,0.271,-0.000753,0.0806,0.0928
GGGGCAG,0.062,0.201,0.958,2.11,0.00129,2.31,0.236,0.111,-0.25,0.119
CATATTA,-0.151,-0.0116,-0.337,-1.96,-0.197,-1.01,-0.145,-0.0347,-0.0217,0.0273
GTATCGC,0.0069,-0.0919,0.0134,0.249,-0.0488,-0.233,0.124,0.00652,0.00196,0.0582
CACATCC,0.069,-0.04,-0.0638,-0.258,-0.0215,-0.585,0.0111,-0.0883,-0.0288,-0.00715
TCATGAT,-0.15,0.0288,-0.667,-1.53,0.0103,1.32,-0.695,0.00313,-0.147,0.0309
GCAGACA,0.0411,0.141,0.558,1.06,0.0816,1.5,0.195,0.0975,0.00531,0.244
CTGGGGA,-0.0367,-0.154,0.505,0.852,0.0969,1.33,0.136,-0.115,-0.115,-0.0287
CTATCCT,-1.56,0.0405,-0.338,-2.28,0.0153,-0.634,-1.27,-0.151,-0.0302,-0.171
GGTCGCG,0.0078,0.0371,-0.678,0.593,0.0634,-0.294,0.105,0.0299,0.0775,-0.0446
TCGGAAA,0.149,0.0919,0.41,0.592,0.112,0.394,0.163,0.174,0.0278,0.225
TCAGATC,-0.0133,-0.128,0.189,-0.133,-0.0227,-0.234,-0.0821,0.0551,-0.174,-0.118
GGAATAT,0.106,0.288,0.968,2.01,0.0815,2.24,0.244,0.143,0.202,0.247
CGATCAC,-0.0517,0.0129,0.0637,0.102,0.0233,-0.211,0.0511,-0.0236,0.0455,0.08
ATTCAGT,-0.65,-0.364,-0.376,-0.947,-0.0889,-1.22,-2.46,-0.173,-0.135,-0.12
ACAAATG,0.0932,0.106,-0.565,-0.337,-0.012,-1.02,0.196,0.0993,0.0996,0.0754
TTCGTTC,0.0177,-0.109,0.228,-0.489,0.0935,-0.448,0.0338,-0.0604,-0.0554,0.102
CGAGACG,-0.0356,0.107,-0.336,-0.298,0.014,-0.752,0.172,0.0323,0.0234,-0.0182
CAAGAAC,0.0653,0.0352,-0.174,-0.0886,0.0336,-0.713,0.148,0.0688,0.0373,0.00734
AGAATAA,-0.116,-0.176,-0.14,-0.048,-0.0222,-0.377,-0.163,0.0309,-0.192,-0.0362
GTCAAGC,0.0252,0.0218,0.23,0.802,-0.0771,0.782,0.0257,-0.00265,0.0487,0.083
